The text below walks through data of the supplement of paper PMC12230231.

± gives the standard deviation of the averaged measurements. Restriction of a single-cycle SIVsab GFP reporter by TRIM5α v1-loop variants in CRFK cells. Human variants: read share among cells still uninfected after two challenges over input, higher = gained restriction. Rhesus variants: share among infected cells over input, higher = lost restriction. Reporter dose not given per row. No active / inactive call per row; the paper calls a change when both replicates lie above its controls (mean + 2 SD of stop or wild-type variants, or the top frameshift score). Residues outside the varied loop are taken from Swiss-Prot. The paper reads the human single-substitution scores as noise; they and the rhesus combinations repeat poorly (rank correlation 0.3 to 0.4), indel scores repeat only for the top variants, rhesus substitutions well (0.9).

This data set deals with SIVsab (simian immunodeficiency virus of sabaeus monkeys), single-cycle GFP reporter, in CRFK cells. Put plainly: enrichment among infected cells over input (fold); higher = weaker restriction. The following applies: library: human / rhesus combinations. On the procedure:
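Pools of CRFK cells expressing variants of the TRIM5α v1 loop were challenged with the single-cycle reporter, sorted by GFP and sequenced; mean of two replicates.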
On to “MASGILLNVKEEVTCPICLELLTEPLSLHCGHSFCQACITANHKKSMLYKEGERSCPVCRISYQPENIQPNRHVANIVEKLREVKLSPEEGQKVDHCARHGEKLLLFCQEDSKVICWLCERSQEHRGHHTFLMEEVAQEYHVKLQTALEMLRQKQQEAEKLEADIREEKASWKIQIDYDKTNVSADFEQLREILDWEESNELQNLEKEEEDILKSLTKSETEMVQQTQYMRELISELEHRLQGSMMDLLQGVDGIIKRIENMTLKKPKTFHKNQRRVFRAPDLKGMLDMFRELTDARRYWVDVTLAPNNISHAVIAEDKRQVSSRNPQIMYQAPGTRFTFQSLVNFNYCTGVLGSQSITSGKHYWEVDVSKKSAWILGVCAGFQSDAMYNIEQNENYQPKYGYWVIGLQEGVKYSVFQDGSSHTPFAPFIVPLSVIICPDRVGVFVDYEACTVSFFNITNHGFLIYKFSQCSFSKPVFPYLNPRKCTVPMTLCSPSS [rhesus TRIM5α, 332-344 = QAPGTRFTFQSLV]”, for which the enrichment worked out at 1.31 ± 0.19. The value for “MASGILLNVKEEVTCPICLELLTEPLSLHCGHSFCQACITANHKKSMLYKEGERSCPVCRISYQPENIQPNRHVANIVEKLREVKLSPEEGQKVDHCARHGEKLLLFCQEDSKVICWLCERSQEHRGHHTFLMEEVAQEYHVKLQTALEMLRQKQQEAEKLEADIREEKASWKIQIDYDKTNVSADFEQLREILDWEESNELQNLEKEEEDILKSLTKSETEMVQQTQYMRELISELEHRLQGSMMDLLQGVDGIIKRIENMTLKKPKTFHKNQRRVFRAPDLKGMLDMFRELTDARRYWVDVTLAPNNISHAVIAEDKRQVSSRNPQIMYQAPGTRFTFQTFTNFNYCTGVLGSQSITSGKHYWEVDVSKKSAWILGVCAGFQSDAMYNIEQNENYQPKYGYWVIGLQEGVKYSVFQDGSSHTPFAPFIVPLSVIICPDRVGVFVDYEACTVSFFNITNHGFLIYKFSQCSFSKPVFPYLNPRKCTVPMTLCSPSS [rhesus TRIM5α, 332-344 = QAPGTRFTFQTFT]” was 1.04 ± 0.12; that for “MASGILLNVKEEVTCPICLELLTEPLSLHCGHSFCQACITANHKKSMLYKEGERSCPVCRISYQPENIQPNRHVANIVEKLREVKLSPEEGQKVDHCARHGEKLLLFCQEDSKVICWLCERSQEHRGHHTFLMEEVAQEYHVKLQTALEMLRQKQQEAEKLEADIREEKASWKIQIDYDKTNVSADFEQLREILDWEESNELQNLEKEEEDILKSLTKSETEMVQQTQYMRELISELEHRLQGSMMDLLQGVDGIIKRIENMTLKKPKTFHKNQRRVFRAPDLKGMLDMFRELTDARRYWVDVTLAPNNISHAVIAEDKRQVSSRNPQIMYQAPGTRFTFQTFVNFNYCTGVLGSQSITSGKHYWEVDVSKKSAWILGVCAGFQSDAMYNIEQNENYQPKYGYWVIGLQEGVKYSVFQDGSSHTPFAPFIVPLSVIICPDRVGVFVDYEACTVSFFNITNHGFLIYKFSQCSFSKPVFPYLNPRKCTVPMTLCSPSS [rhesus TRIM5α, 332-344 = QAPGTRFTFQTFV]” was 1.43 ± 0.44; that for “MASGILLNVKEEVTCPICLELLTEPLSLHCGHSFCQACITANHKKSMLYKEGERSCPVCRISYQPENIQPNRHVANIVEKLREVKLSPEEGQKVDHCARHGEKLLLFCQEDSKVICWLCERSQEHRGHHTFLMEEVAQEYHVKLQTALEMLRQKQQEAEKLEADIREEKASWKIQIDYDKTNVSADFEQLREILDWEESNELQNLEKEEEDILKSLTKSETEMVQQTQYMRELISELEHRLQGSMMDLLQGVDGIIKRIENMTLKKPKTFHKNQRRVFRAPDLKGMLDMFRELTDARRYWVDVTLAPNNISHAVIAEDKRQVSSRNPQIMYQAPGTRFTFQTLTNFNYCTGVLGSQSITSGKHYWEVDVSKKSAWILGVCAGFQSDAMYNIEQNENYQPKYGYWVIGLQEGVKYSVFQDGSSHTPFAPFIVPLSVIICPDRVGVFVDYEACTVSFFNITNHGFLIYKFSQCSFSKPVFPYLNPRKCTVPMTLCSPSS [rhesus TRIM5α, 332-344 = QAPGTRFTFQTLT]” was 1.52 ± 0.12.
